Measured values from publication PMC4336329 (PLoS ONE, 2015).
Hit rate of the full screen: of about 310,000 compounds, about 14,000 (4.5%) showed an effect of 50% or more. Effects have a minus sign here. Some of the results follow.

The compounds below were run against human ether-à-go-go-related gene (hERG) potassium channel (human, UniProt Q12809) (assay: primary screen, population patch clamp on CHO cells stably expressing hERG).
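Note: peak tail current of the secondary pulse compared with the same well before compound.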

Sequence of human ether-à-go-go-related gene (hERG) potassium channel (Q12809 whole entry, looked up): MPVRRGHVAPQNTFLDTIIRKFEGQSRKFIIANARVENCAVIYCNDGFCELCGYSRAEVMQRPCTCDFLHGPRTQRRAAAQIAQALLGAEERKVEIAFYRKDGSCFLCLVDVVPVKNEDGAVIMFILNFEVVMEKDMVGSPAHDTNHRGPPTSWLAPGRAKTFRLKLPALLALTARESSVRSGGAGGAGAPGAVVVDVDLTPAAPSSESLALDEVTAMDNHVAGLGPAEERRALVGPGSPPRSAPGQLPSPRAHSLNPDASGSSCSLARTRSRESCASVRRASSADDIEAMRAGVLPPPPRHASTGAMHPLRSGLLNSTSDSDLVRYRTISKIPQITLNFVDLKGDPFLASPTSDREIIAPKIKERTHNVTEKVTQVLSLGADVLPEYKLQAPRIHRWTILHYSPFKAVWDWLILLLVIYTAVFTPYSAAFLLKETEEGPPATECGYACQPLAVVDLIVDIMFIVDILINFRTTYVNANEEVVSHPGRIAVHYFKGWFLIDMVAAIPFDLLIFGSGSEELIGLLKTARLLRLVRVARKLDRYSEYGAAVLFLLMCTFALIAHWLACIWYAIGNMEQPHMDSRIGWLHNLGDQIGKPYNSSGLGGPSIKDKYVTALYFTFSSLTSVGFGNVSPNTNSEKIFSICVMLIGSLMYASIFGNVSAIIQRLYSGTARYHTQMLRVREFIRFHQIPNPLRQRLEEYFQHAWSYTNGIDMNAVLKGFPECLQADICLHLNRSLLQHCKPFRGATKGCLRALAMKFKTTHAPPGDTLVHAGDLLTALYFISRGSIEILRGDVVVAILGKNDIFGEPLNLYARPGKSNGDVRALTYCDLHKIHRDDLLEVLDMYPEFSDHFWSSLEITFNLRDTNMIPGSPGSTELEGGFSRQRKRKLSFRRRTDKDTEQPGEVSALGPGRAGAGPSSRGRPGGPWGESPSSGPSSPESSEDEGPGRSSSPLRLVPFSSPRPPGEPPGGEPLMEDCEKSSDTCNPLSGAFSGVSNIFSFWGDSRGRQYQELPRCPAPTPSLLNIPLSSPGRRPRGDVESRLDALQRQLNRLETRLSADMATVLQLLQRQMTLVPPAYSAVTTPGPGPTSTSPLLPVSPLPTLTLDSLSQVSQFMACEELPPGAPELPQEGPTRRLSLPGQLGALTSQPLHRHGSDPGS

| Structure (SMILES) | hERG current change (%, negative = inhibition) at 10uM [%] |
| --- | --- |
| Cc1ccc(S(=O)(=O)Nc2ccc(Br)cc2C(NCC(=O)O)c2ccccc2)cc1 (stereo not drawn) | -12.4 |
| COc1ccc(C(=O)CCS(=O)(=O)c2ccc(C)cc2)cc1 | 8.78 |
| COC(=O)c1ccc(Cl)c(NS(=O)(=O)c2ccc3c(c2)OCCO3)c1 | -25.4 |
| O=C1c2ccccc2C(=O)N1Cc1cc(-c2ccccc2Cl)no1 | -2 |
| O=C(Nc1ccccc1-c1nnn(CC(=O)N2CCCc3ccccc32)n1)c1ccc(Cl)cc1 | 8.92 |
| COc1ccc(OC)c(CN2CCN(CCCc3ccccc3)C(CCO)C2)c1 (stereo not drawn) | -68.6 |
| Cc1ccc(/C=C2/Sc3ccc(C(=O)N4CCN(C)CC4)cc3NC2=O)cc1 | -2.6 |
| CCc1sc(C(=O)NC)cc1Br | -1.03 |
| COc1ccc(N(CC(O)CN2C(=O)NC(C)(C)C2=O)S(=O)(=O)c2ccccc2)cc1 (stereo not drawn) | -17.7 |
| CC(NC(=O)C(C)N1C(=O)c2cccc([N+](=O)[O-])c2C1=O)c1ccccc1 (stereo not drawn) | 25.9 |
| CN(c1cccc(NC(=O)CN(c2cccc(Cl)c2)S(=O)(=O)c2ccccc2)c1)S(C)(=O)=O | 11.6 |
| O=C(NCc1ccco1)c1ccc(Oc2ccccc2)cc1 | -30.5 |
| CN(NC(=O)C(C)(C)C)c1nc(-c2ccccc2)nnc1C(F)(F)F | -4.05 |
| Cc1c(NC(=S)NC(NC(=O)C(C)C)C(Cl)(Cl)Cl)c(=O)n(-c2ccccc2)n1C (stereo not drawn) | -1.45 |
| CCCn1ncc(CN2CCC(n3nccc3NC(=O)c3ccccc3OC)CC2)c1C | -79.2 |
| O=C(Nc1nc2ccccc2n1CCOc1ccccc1)c1ccco1 | -2.07 |
| CCc1ccccc1S(=O)(=O)c1c(C)cc(C)nc1Cl | 10.3 |
| O=C(COc1ccccc1)Nc1nc(-c2ccc(S(=O)(=O)N3CCOCC3)cc2)cs1 | 1.77 |
| Cc1nc([N+](=O)[O-])cn1CCCCN1C(=O)c2ccccc2C1=O | 6.42 |
| CC(=O)CCC(=O)c1ccc2ccccc2c1 | -12.1 |
| CCOc1ccccc1Nc1cc(C)nc2ccc(C)cc12 | -70.1 |
| CCCCc1ccc(NC(=S)Nc2ccc(Nc3ccc(OC)cc3)cc2)cc1 | 7.1 |
| Cc1cccc(C(=O)Nc2c3c(nn2C(C)(C)C)CS(=O)(=O)C3)c1 | 14.9 |

| Structure (SMILES) | hERG current change (%, negative = inhibition) at 10uM [%] |
| --- | --- |
| O=C(CC(c1ccccc1)c1cc(Cl)ccc1O)NCCN1CCOCC1 (stereo not drawn) | -42.1 |
| c1ccc(-c2cc3ncccc3cn2)cc1 | 4.36 |
| N#CC(C(=O)O)=C1CCCC1 | -11.4 |
| Cc1cc(C)cc(OCc2ccc(C(=O)N3N=C(C(F)F)CC3(O)C(F)F)o2)c1 (stereo not drawn) | -11 |
| Cc1ccc(OS(=O)(=O)c2ccccc2)c(/C=N/N=C2\NC(=O)C(C)S2)c1 (stereo not drawn) | -0.524 |
| CC(C)(C)c1ccc(OCC(O)CN2CCOCC2)cc1 (stereo not drawn) | -3.19 |
| C=CCn1c(O)c(C(C)=NCc2cc(OC)cc(OC)c2)c(=O)[nH]c1=O | -37 |
| Cc1ccc(CSCC(Nc2ccc(C(=O)O)cc2[N+](=O)[O-])C(=O)O)cc1 (stereo not drawn) | 6.66 |
| CS(=O)(=O)N1CCN(c2cnn(-c3ccccc3)c(=O)c2Cl)CC1 | -0.644 |
| O=C(Nc1ccccc1F)c1ccc2snnc2c1 | 15 |
| COc1cccc(NC(=O)CCC2CCN(C(=O)C3CC=CCC3)CC2)c1 (stereo not drawn) | -1.57 |
| COc1cc(NC(=O)CSCC(=O)N(C)C2CCCCC2)cc(OC)c1 | 5.36 |
| Cc1ccccc1C(=O)Nc1cccc(NC(=S)NC(=O)c2cccs2)c1 | 11.4 |
| Cc1ccc(C(=O)N(CC#N)CC#N)cc1C | 0.632 |
| O=C(N1CCCCC1)N1CCN(C(c2ccccc2)c2ccccc2)CC1 | -12 |
| CCc1ccccc1OCC(=O)Nc1cccc(S(=O)(=O)NCc2ccco2)c1 | -13.4 |
| CCOC(=O)c1ccccc1NC(=O)[C@@H]1CCCN1C(=O)OC(C)(C)C | -21.8 |
| Cc1nc(SC2CC(=O)N(c3ccccc3)C2=O)n[nH]1 (stereo not drawn) | -0.898 |
| Cc1ccc(S(=O)(=O)NCC(=O)N2CCCC2)cc1 | 4.77 |
| Cc1ccc(C(=O)NC(=S)Nc2nc(-c3cccc([N+](=O)[O-])c3)cs2)c(Cl)c1 | 7.09 |
| COc1ccc(C(=O)Nc2nc3ccccc3[nH]2)cc1OC | -6.47 |
| COc1cccc(COC(=O)c2cc(S(=O)(=O)N3CCCCC3)ccc2N2CCOCC2)c1OC | 8.27 |
| O=C(CSc1nnc(-c2cccnc2)o1)Nc1ccccn1 | 9.65 |

| Structure (SMILES) | hERG current change (%, negative = inhibition) at 10uM [%] |
| --- | --- |
| CCOC(=O)c1c(C)n(Cc2ccc(F)cc2)c2ccc(O)cc12 | 3.51 |
| CCOc1ccc(C(=O)Nc2nccs2)cc1[N+](=O)[O-] | -22 |
| COCCCNC(=O)CSc1nc2c(sc3ccccc32)c(=O)n1CCCC(=O)NCC1CCCO1 (stereo not drawn) | -14.4 |
| CC(=O)[C@@]1(O)CC[C@H]2[C@@H]3CC=C4C[C@@H](O)CC[C@]4(C)[C@H]3CC[C@@]21C | 3.18 |
| CCCCC(CC)C1OCC(CN2CCCCC2)O1 (stereo not drawn) | -7.71 |
| Cc1ccc(-c2cc(C(=O)N3CCC4(CC3)OCCO4)no2)cc1 | -7.31 |
| S=c1[nH]nc(Nc2cccc3ccccc23)s1 | 16.3 |
| O=C(NNC(=O)c1ccc(Oc2cc(Cl)cc(Cl)c2)o1)c1ccccc1 | 6 |
| O=C(COC(=O)CC1CC2CCC1C2)NC(=O)NC1CCCC1 (stereo not drawn) | 14 |
| NC(=O)c1cc([N+](=O)[O-])ccc1Nc1ccccc1 | -3.26 |
| Cc1cc(=O)n2[nH]c(-c3ccsc3-n3c(C)ccc3C)cc2n1 | -14.1 |
| CN1C(=O)c2ccc(Oc3ccccc3)cc2C1=O | -5.03 |
| COc1ccc(Nc2cc(C)nc3ncnn23)cc1Cl | -39.5 |
| COC(=O)C1=C(C)N(C)C(C)=C(C(=O)OC)C1c1ccccn1 | 5.08 |
| COc1cc(/C=C/C(=O)OCC(=O)N(C)CC(=O)Nc2ccc(F)cc2)ccc1OC(F)F | -48 |
| CCOc1ccc(N=Nc2c(=O)[nH]n3c(C)cc(C)nc23)cc1 | -1.7 |
| COc1cccc(OC)c1C(=O)N1CCNCC1.O=C(O)C(=O)O | 12.5 |
| NC(=O)C1CCN(C(=O)CCC(=O)c2ccc(F)cc2)CC1 | 17.4 |
| O=C(CN1CCOCC1)N1CCCc2ccccc21.O=C(O)C(=O)O | 22.4 |
| O=C(Nc1cccc(Cl)c1)NC1CC2CCC(C1)N2Cc1ccco1 (stereo not drawn) | -10.5 |
| Cc1nnc(SCC(=O)Nc2cc(S(=O)(=O)N3CCCC3)ccc2Cl)s1 | -7.16 |
| CC(C)OC(=O)CSc1nnc(CNc2ccc(Cl)cc2)n1Cc1ccccc1 | -33 |
| O=C(COC(=O)C1CC1)NC(=O)NCc1ccccc1 | 22.6 |

| Structure (SMILES) | hERG current change (%, negative = inhibition) at 10uM [%] |
| --- | --- |
| C/C(=C\c1cc2ccccc2o1)C1Nc2cccc3cccc(c23)N1 | 9.36 |
| Cc1c(Cl)cccc1NC(=O)CNC(=O)Cc1c[nH]c2ccccc12 | 0.839 |
| Cc1cc(Cl)ccc1OCC(=O)N1CCCCC1 | -0.846 |
| COc1ccc(-c2nc3ccc(C(=O)NCCCN4CCOCC4)cc3nc2-c2ccc(OC)cc2)cc1 | 9.44 |
| Cl.Clc1ccccc1CSC1=NCCCN1 | 0.0434 |
| CC(NC(=O)c1ccco1)C(c1cccs1)N1CCN(c2ccccc2)CC1 (stereo not drawn) | -21.3 |
| Cc1ccccc1CC(=O)Nc1cccc(S(=O)(=O)N2CCCC2)c1 | -3.62 |
| O=C(O)c1ccc(S(=O)(=O)N(Cc2ccccc2)Cc2ccccc2)cc1 | 12 |
| COc1ccc(C(C)=O)c2c(O)cccc12 | -2.9 |
| CCC(C)(C(=O)NC1CCCCC1)N(Cc1cccs1)C(=O)c1ccccn1 (stereo not drawn) | 3.38 |
| COc1ccc2oc(C(=O)OCC(=O)Nc3ccccc3OC)c(C)c2c1 | 7.07 |
| O=C(O)CCN1C(=O)C2CCCCC2C1=O (stereo not drawn) | 6.28 |
| CC1CCN(CCCNC(=O)c2ccc3c(=O)n(Cc4ccc(Cl)cc4)c(=S)[nH]c3c2)CC1 | -68.4 |
| CCOC(=O)c1nnc(-c2ccc(C)cc2)nc1N1CCSCC1 | -35 |
| CN1CCN(c2ccc(NC(=O)c3ccccc3)cc2)CC1 | -0.717 |
| CCCc1nc2nc(C)c(NS(=O)(=O)c3ccc(Cl)cc3)c(=O)n2[nH]1 | 17.4 |
| Cc1cc(C)n2nc(C(=O)N3CCOCC3)nc2n1 | 8.2 |
| Cc1cc(C)c(C)c(OCC(=O)O/N=C(\N)c2cccnc2)c1 | 4.71 |
| Cc1cc(C(F)(F)F)nn1CC(=O)N1CCOCC1 | -7.96 |
| O=C1CC(C(=O)Nc2cccc(F)c2)n2ncnc2N1 (stereo not drawn) | 7.95 |
| COc1ccccc1/C=C/C(=O)NNC(=O)c1cc(C)oc1C | -1.1 |
